# Test results: the supplement of paper PMC8728848
# The list shows a part of the results.
# How the values were obtained:
# Test in all cases: glycan array binding signal (z-score within array); higher = stronger binding
# Conditions in all cases: glycan notation: IUPAC condensed, linker removed
# [1] = target: Gal(b1-4)GlcNAc(b1-3)Gal(b1-4)GlcNAc(b1-3)Gal(b1-4)GlcNAc(b1-3)Gal(b1-4)GlcNAc(b1-2)Man(a1-3)[Gal(b1-4)GlcNAc(b1-3)Gal(b1-4)GlcNAc(b1-3)Gal(b1-4)GlcNAc(b1-3)Gal(b1-4)GlcNAc(b1-2)Man(a1-6)]Man(b1-4)GlcNAc(b1-4)GlcNAc
# In short: (§1)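 Columns mapping to the same glycan were averaged after glycan names were converted to IUPAC-condensed notation. The data come from 3228 arrays in the Consortium for Functional Glycomics database, limited to those with an available protein sequence. Binding is reported as a within-array Z-score averaged across arrays of one protein sequence and across linkers.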
# [2] = target: Gal(b1-4)GlcNAc(b1-3)Gal(b1-4)GlcNAc(b1-3)Gal(b1-4)GlcNAc(b1-3)Gal(b1-4)GlcNAc(b1-2)Man(a1-3)[Gal(b1-4)GlcNAc(b1-3)Gal(b1-4)GlcNAc(b1-3)Gal(b1-4)GlcNAc(b1-3)Gal(b1-4)GlcNAc(b1-2)Man(a1-6)]Man(b1-4)GlcNAc(b1-4)[Fuc(a1-6)]GlcNAc
# In short: as §1
# [3] = target: Gal(b1-4)GlcNAc(b1-3)Gal(b1-4)GlcNAc(b1-3)Gal(b1-4)GlcNAc(b1-3)Gal(b1-4)GlcNAc(b1-2)[Gal(b1-4)GlcNAc(b1-3)Gal(b1-4)GlcNAc(b1-3)Gal(b1-4)GlcNAc(b1-3)Gal(b1-4)GlcNAc(b1-6)]Man(a1-6)[Gal(b1-4)GlcNAc(b1-3)Gal(b1-4)GlcNAc(b1-3)Gal(b1-4)GlcNAc(b1-3)Gal(b1-4)GlcNAc(b1-2)Man(a1-3)]Man(b1-4)GlcNAc(b1-4)[Fuc(a1-6)]GlcNAc
# In short: as §1
# [4] = target: Gal(b1-4)GlcNAc(b1-3)Gal(b1-4)GlcNAc(b1-3)Gal(b1-4)GlcNAc(b1-3)Gal(b1-4)GlcNAc(b1-3)Gal(b1-4)GlcNAc(b1-2)Man(a1-3)[Gal(b1-4)GlcNAc(b1-3)Gal(b1-4)GlcNAc(b1-3)Gal(b1-4)GlcNAc(b1-3)Gal(b1-4)GlcNAc(b1-3)Gal(b1-4)GlcNAc(b1-2)Man(a1-6)]Man(b1-4)GlcNAc(b1-4)GlcNAc
# In short: as §1
# [5] = target: Gal(b1-4)GlcNAc(b1-3)Gal(b1-4)GlcNAc(b1-3)Gal(b1-4)GlcNAc(b1-3)Gal(b1-4)GlcNAc(b1-3)Gal(b1-4)GlcNAc(b1-2)Man(a1-3)[Gal(b1-4)GlcNAc(b1-3)Gal(b1-4)GlcNAc(b1-3)Gal(b1-4)GlcNAc(b1-3)Gal(b1-4)GlcNAc(b1-3)Gal(b1-4)GlcNAc(b1-2)Man(a1-6)]Man(b1-4)GlcNAc(b1-4)[Fuc(a1-6)]GlcNAc
# In short: as §1
# [6] = target: Gal(b1-4)GlcNAc(b1-3)Gal(b1-4)GlcNAc(b1-3)Gal(b1-4)GlcNAc(b1-3)Gal(b1-4)GlcNAc(b1-3)Gal(b1-4)GlcNAc(b1-2)[Gal(b1-4)GlcNAc(b1-3)Gal(b1-4)GlcNAc(b1-3)Gal(b1-4)GlcNAc(b1-3)Gal(b1-4)GlcNAc(b1-3)Gal(b1-4)GlcNAc(b1-6)]Man(a1-6)[Gal(b1-4)GlcNAc(b1-3)Gal(b1-4)GlcNAc(b1-3)Gal(b1-4)GlcNAc(b1-3)Gal(b1-4)GlcNAc(b1-3)Gal(b1-4)GlcNAc(b1-2)Man(a1-3)]Man(b1-4)GlcNAc(b1-4)[Fuc(a1-6)]GlcNAc
# In short: as §1
# [7] = target: Gal(b1-4)GlcNAc(b1-3)Gal(b1-4)GlcNAc(b1-3)Gal(b1-4)GlcNAc(b1-3)Gal(b1-4)GlcNAc(b1-3)Gal(b1-4)GlcNAc(b1-3)Gal(b1-4)GlcNAc(b1-2)Man(a1-3)[Gal(b1-4)GlcNAc(b1-3)Gal(b1-4)GlcNAc(b1-3)Gal(b1-4)GlcNAc(b1-3)Gal(b1-4)GlcNAc(b1-3)Gal(b1-4)GlcNAc(b1-3)Gal(b1-4)GlcNAc(b1-2)Man(a1-6)]Man(b1-4)GlcNAc(b1-4)GlcNAc
# In short: as §1
# [8] = target: Gal(b1-4)GlcNAc(b1-3)Gal(b1-4)GlcNAc(b1-3)GalNAc
# In short: as §1
# [9] = target: Gal(b1-4)GlcNAc(b1-3)Gal(b1-4)GlcNAc(b1-3)[Gal(b1-4)GlcNAc(b1-3)Gal(b1-4)GlcNAc(b1-6)]GalNAc
# In short: as §1
# [10] = target: Gal(b1-4)GlcNAc(b1-3)Gal(b1-4)GlcNAc(b1-6)[Gal(b1-3)]GalNAc
# In short: as §1
# [11] = target: Gal(b1-4)GlcNAc(b1-3)Gal(b1-4)[Fuc(a1-3)]GlcNAc(b1-3)Gal(b1-4)[Fuc(a1-3)]GlcNAc
# In short: as §1
# [12] = target: Gal(b1-4)GlcNAc(b1-3)GalNAc
# In short: as §1
# [13] = target: Gal(b1-4)GlcNAc(b1-3)[Fuc(a1-3)GlcNAc(b1-6)]Gal(b1-4)Glc
# In short: as §1
# [14] = target: Gal(b1-4)GlcNAc(b1-3)[Gal(b1-4)GlcNAc(b1-6)]Gal(b1-4)GlcNAc
# In short: as §1
# [15] = target: Gal(b1-4)GlcNAc(b1-3)[GlcNAc(b1-6)]Gal(b1-4)GlcNAc
# In short: as §1
# [16] = target: Gal(b1-4)GlcNAc(b1-6)Gal(b1-4)GlcNAc
# In short: as §1
# [17] = target: Gal(b1-4)GlcNAc(b1-6)GalNAc
# In short: as §1
# [18] = target: Gal(b1-4)GlcNAc(b1-6)[Gal(b1-3)]GalNAc
# In short: as §1
# [19] = target: Gal(b1-4)GlcNAc(b1-6)[Gal(b1-4)GlcNAc(b1-3)]GalNAc
# In short: as §1
# [20] = target: Gal(b1-4)GlcNAc6P
# In short: as §1
# [21] = target: Gal(b1-6)Gal
# In short: as §1
# [22] = target: Gal3S(b1-3)GalNAc
# In short: as §1
# [23] = target: Gal3S(b1-3)GlcNAc
# In short: as §1
binder,measurement,setting,value
"InvD YPIII (Yersinia pseudotuberculosis), B1JSC0 (protein) MIKYFSFFKKPEPIVGILPNRQSHHILPTHIRRVAWGTLLLQLFIPLSVSFSPAIAAMKASKADTMVSYSSTEPYVLGSGETVAMVAKKYGITVDELKKINIYRTFSRPFTALTTGDEIDIPRKASPFSVDNNKDNRLSVENTLAGHAVAGATALSNGDVAKSGERMVRSAASNEFNNSAQQWLSQFGTARVQLNINDDFHLDGSAADVLIPLYDNEKSILFTQLGARNKDSRNTVNMGAGVRTFQGNWMYGANTFFDNDLTGKNRRIGVGAEAWTDYLKLSANNYFGITDWHQSRDFIDYNERPANGYDLRAEAYLPSYPQLGGKAMYEKYRGDDVALFGKDNRQKNPHAITAGVNYTPIPLVTIGAEHRAGKGGQNDSNINFQLNYRLGETWQSHIDPSAVAASRTLAGSRYDLVERNNHIVLDYQKQNLVRLSLPDSLAGDPFSQLSVTAQVTATHGLERIDWQSAELMAAGGVLKQTSKNGLEITLPEYQMNRTGGNSYILNAIAYDTQGNASSQASMLITVNAQKINIANSTLVAVPINIEANNSDTSVVTLTLKDDNNIPVTGQDVTFLSPLGTLSAMTDSGNGVYTATLTAGTVSGTTAVSSNINGSALDMTPATVTLNGNSGELSITHSMLVAAPVNIEANGSDTSVVTLTLRDSNNNPVTGQTVTFAGTLGTLGAVTEGSSGVYTATLTAGIMVGTSSITASVNSTALGVTPATVTLNGDSGNLSTTNSTLVAAPVNIEANSSDTSVVTLTLRDNNNNPVTGQTVVFTSTLGTLGNVTEQASGVYTATLTAGTVSGVASLSVSVGGNALGVTPATVTLNGDSGNLSTTNSTLVAAPVNIEANSSDTSVVTLTLRDNNNNPVTGQTVNFAGTLGTLGTVSEGSSGVYTTTLTAGTVAGVASLSVNVGGNALGVTPATVTLNGNSGNLSATNSTLVAAPVNIEANSSDTSVVTLTLRDNNNNPVTGQTVAFTSTLGTLGNVTEQASGVYTATLTAGTVSGVASLSVSVNSNALGVTPATVTLNGDSGNLSTTNSTLVAAPVNIEANSSDTSVVTLTLRDNNNNPVTGQTVAFTSTLGTLGNVTEQASGLYTATLTAGTVSGVASLSVNVGGNALGVTPATVTLNGDSGNLSATNSTLVAAPVNIEANSSDTSVVTLTLRDNNNNPVTGQTVAFTSTLGTLGNVTEQASGLYTATLTAGTVSGVASLSVNVGGTALGVTPATVTLNGDSGNLSTTNSTLVAAPVNIEANSSDTSVVTLTLRDNNNNPVTGQTVAFTSTLGTLGNVTEQASGLYTATLTAGTVSGVASLSVSVNSTALGVTPATVTLNGDSGNLSTTNSTLVAAPVNIEANSSDTSVVTLTLRDNNNNPVTGQTVAFTSTLGTLGNVTEQASGVYTATLTAGTVAGVASLSVNVGGNALGVTPATVTLNGDSGNLSTTNSTLVAAPVNIEANSSDTSVVTLTLRDNNNNPVTGQTVAFTSTLGTLGNVTEQASGVYTATLTAGTVSGVASLSVSVGSSALGVTPATVTLNGDSGNLSTTNSTLVAAPVNIEANNSDTSVVTLTLRDNNNNPVTGQTVAFTSTLGTLGNVTEQASGVYTATLTAGTVSGVASLSVSVNSNALGVTPATVTLNGDSGNLSTTNSTLVAAPVNIEANSSDTSVVTLTLRDNNNNPVTGQTVVFTSTLGTLGNVTEQASGLYTATLTAGTVSGVASLSVSVGGNALGVTGNITLAPGALDAARSILAVNKPSINADDRIGSTITFTAQDAQGNAITGLDIAFMTDLENSQIMTLVDHNDGTYTANINGTQTGIANIAVQSSGATIAGLAATMVTITPGAWNTTQATPVMTVALPITTCQSSSGVYKRYYIGIVTHELYDNYGNEISGILTYNLGAGRYTTVTSQNSSVSGSNGLTRRSNSPVSHFILTSDAYTSQAACYAERIANVNVTITVTAITDDFKTSAVNKVFILGTGSN",glycan array binding signal (z-score),[1],0.103
same,glycan array binding signal (z-score),[2],0.231
same,glycan array binding signal (z-score),[3],0.748
same,glycan array binding signal (z-score),[4],-0.134
same,glycan array binding signal (z-score),[5],-0.094
same,glycan array binding signal (z-score),[6],0.512
same,glycan array binding signal (z-score),[7],0.268
same,glycan array binding signal (z-score),[8],1.27
same,glycan array binding signal (z-score),[9],1.71
same,glycan array binding signal (z-score),[10],1.51
same,glycan array binding signal (z-score),[11],-0.275
same,glycan array binding signal (z-score),[12],-0.218
same,glycan array binding signal (z-score),[13],-0.177
same,glycan array binding signal (z-score),[14],-0.248
same,glycan array binding signal (z-score),[15],0.284
same,glycan array binding signal (z-score),[16],-0.031
same,glycan array binding signal (z-score),[17],-0.087
same,glycan array binding signal (z-score),[18],-0.231
same,glycan array binding signal (z-score),[19],-0.222
same,glycan array binding signal (z-score),[20],-0.305
same,glycan array binding signal (z-score),[21],-0.134
same,glycan array binding signal (z-score),[22],-0.322
same,glycan array binding signal (z-score),[23],-0.26
